Data on 24 sequences can be found in the supplement of paper PMC10338343.

± gives the standard deviation. This is a selection; strong and weak results do not stand in their true shares.

This assay has as its system MIWI (PIWIL1) piRISC loaded with L1MC piRNA (30 nt). Put plainly: pre-steady-state target cleavage rate (min^-1); MIWI and MILI are mouse PIWI proteins and EfPiwi is from a freshwater sponge; tags in brackets are library labels; higher = faster piRNA-guided slicing of the target. The conditions noted are these: guide: L1MC piRNA 5'p-UAACUAAAUACUAUGCAAGCUGUAGGUCCU; auxiliary factor: 500 nM mouse GTSF1. In short, it runs like this: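 Sequencing of uncleaved targets, normalised to depth and to weakly complementary targets, was the readout of this Cleave-'n-Seq assay. A transcribed, DNA-blocked target RNA library (0.1 nM) was mixed with 1 nM active affinity-purified piRISC carrying one synthetic guide, with or without 500 nM GTSF1 partner protein, in HEPES–potassium acetate buffer at 33 °C for 0–8 or 0–960 min. Three trials were pooled, k3 was capped at 0.0001 min^-1, and a burst-and-steady-state fit gave the pre-steady-state cleavage rate.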
In the case of UCCUGCUACAGCUUGCAUAGUUUUUAGAAA, the “pre-steady-state target cleavage rate” value stood at 0.124 ± 0.025.
The figure for UCGACCUACAGGAAGCAUAGUAUUUACAAA is 0.17 ± 0.034.
The figure for “UCCUCCUACAGCUUGCAUAGUAUUUUCAAA [g6:g26:cont:t1A]” is 0.483 ± 0.062.
The figure for UCCUGGAACACCUUGCAUAGUAUUUACAAA is 0.147 ± 0.047; for UCCUCCUACUCCUUGCAUAGUAUUUUCAAA it is 0.216 ± 0.035; for UCCUCCUACAGCUUGCUUAGUAUUUAGAAA it is 0.226 ± 0.035.
For the sequence UCCUCCUACAGCUUGCUAUGUAUUUAGUAA, the “pre-steady-state target cleavage rate” value is 0.0593 ± 0.013.
Take UCCUGGAACAGCUAGCAUAGUAUUUAGAAA: the “pre-steady-state target cleavage rate” value was 0.395 ± 0.054.
Regarding UGGACCUACAGCUUGCAUCAGUAUUUAGUUA, the “pre-steady-state target cleavage rate” value is 0.00927 ± 0.0043.
With UCCACCUACAGCUUCCAUUGUAUUUAGUUA, the “pre-steady-state target cleavage rate” value was found to be 0.112 ± 0.019.
Consider UCCUCCUACAGCUUGGUAAGUAUUUAGUUA, for which the “pre-steady-state target cleavage rate” value came to 0.0733 ± 0.013.
The figure for UCCUGGAACUCGUUGCAUAGUAUUUUCAAA is 0.00974 ± 0.0044.
The figure for UCCACCUACAGCUUGCGAUAGUAUUUAGUUA is 0.0565 ± 0.018.
For UCCACCUACAGCUAGCAUAGUAUUUUCAAA the value was 0.305 ± 0.039; for UCCUGCUACAGCUUCGUUAGUAUUUAGUAA, 0.0612 ± 0.014; for UCCUGGUACAGCUUGCAUAGUCAUUUAGUUA, 0.0123 ± 0.0065.
Turning to UCCUGCUACAGCUUGCAAUGUAUUUAGAAA, the “pre-steady-state target cleavage rate” value came to 0.0959 ± 0.021.
For UGGACCUACAGCUUGCAUUAGUAUUUAGUUA the value was 0.0108 ± 0.0044; for UCCUGGAUGUCGUUGCAUAGUAUUUAGUGUA, 0.00426 ± 0.0033.
The figure for UCCUGGUACAGCUUGCAUAGUAUAUACAAA is 0.183 ± 0.043.
For UCCUGGAUCAGCUUGCAUAGUAAAUAGUAA the value was 0.17 ± 0.038.
On to AGGACCUACAGGAUGCAUAGUAUUUUCAAA, for which the “pre-steady-state target cleavage rate” value amounted to 0.319 ± 0.048.
The figure for UGGACCUACAGCUUGCAGUAGUAUUUAGUUA is 0.00477 ± 0.0038; for AGCACCUACAGCUUGCAUAGUAUUUAGAUA it is 1.01 ± 0.15.
